This is one part of the list. At the low end of the ranking the order means little. Measured with an extract: partners may take part in the binding.
The sequences below were run against T1, HNF4alpha2 (COS-7 nuclear extract) (UniProt P41235) (assay: protein-binding microarray). Conditions: COS-7 nuclear extract on double-stranded Agilent 4x180k PBM; binding buffer, salt, pH and temperature not given; high values mean tight binding; double strand, one strand shown; sequences stand for … in …GCCTAGGGAGATTAGAGTATCGGTCGA.
T1 sequence: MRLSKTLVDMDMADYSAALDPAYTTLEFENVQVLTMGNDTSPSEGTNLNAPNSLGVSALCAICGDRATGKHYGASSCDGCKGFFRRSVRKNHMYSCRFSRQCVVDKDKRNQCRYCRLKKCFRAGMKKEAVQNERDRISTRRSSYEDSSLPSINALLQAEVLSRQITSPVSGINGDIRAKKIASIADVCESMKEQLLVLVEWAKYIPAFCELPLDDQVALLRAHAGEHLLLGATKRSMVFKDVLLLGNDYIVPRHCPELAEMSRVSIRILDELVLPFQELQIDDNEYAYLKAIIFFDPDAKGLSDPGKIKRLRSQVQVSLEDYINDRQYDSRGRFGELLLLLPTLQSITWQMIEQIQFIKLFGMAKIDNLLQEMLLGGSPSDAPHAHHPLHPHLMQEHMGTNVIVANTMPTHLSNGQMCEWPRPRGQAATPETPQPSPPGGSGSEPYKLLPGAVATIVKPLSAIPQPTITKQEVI

Sequence | binding signal (log2 normalized intensity)
GCTGTCACTGGCTGCTGCTCAGGAGACCGA | -1.27
TTTTGAATGACAGTGTCAGGACCTTGCTCC | 2.11
GATAAAGCAGGTTGTACCTTGACCCAAGAA | 4.88
GCCGACTGCCAGGAGGGGACTTCAAAGGCT | -1.38
ACAAAGCCCATGCTGGACCCTGGGCTTAGT | 1.97
AAGGGCAGCAGTAACCCCCCAGGAGCGAGT | 3.54
AGGAGGAGCCAGTGAAGACTGAAAAGAGAT | -1.14
AATCTTGATAATGCCCTGACCCTAGATGAG | 1.57
GTATTGAGATAAGCAAGACTGCAGGGTCAT | 1.46
TGTCTCCCTCTGCAGCAAAGTCCAGGCATA | 1.13
CTGCAAACAGTGAGCCCAGTGGAGTAGGCT | -1.13
TATCGGTCACCATAAAACATTCTATTCTAT | -1.1
AGGCAGCAGCTCCAATTAGGAGATCAGCCC | -1.26
CATAAACTCCAACTCAGCCCCCAGCATTAT | 5.03
AACAACGGCGGCCCAGTCAAACCCCGCGCT | -1.31
CCCATCCGCAGTGGGAGAGCAAGGGTCAAG | 3.57
ACAAAGGGCAAAGTCCCCTTTCCTCATATT | 4.8
TTGATTTAACATTTGTGATCTGGCACAAAT | 0.545
CTGGCGTCCCCCACCTGGAATGTGCTCCCG | 3.28
CGGTCACTACAACAACGGCGGCCCAGTCAA | -1.08
CTCCTGGTGTGCTGTTAGCTGAAGGACGTC | 0.769
TCTTCAAGGAGGTGAACTTTGAGACTATCC | 4.6
CCCTGGAGCACAGAAGGAGGGCGGGGAGTC | -1.12
TGTTTGCATTAGTTATATCTTACCTCCTTC | 1.19
AGAGTCCAAATTCCTTGGTATGGCAAATAA | 1.61

Sequence | binding signal (log2 normalized intensity)
TTGGAAAAAGCAGGCAACCAAGGGTACACA | -1.05
GTCAGGGGCAGGTGGAGGTGGGATACTGGG | -1.13
TAGACAGCTTGAGAAACAGGGGCTTAAACC | -1.16
AAGAGCTGAGGAAGTGCTGACCTTTGGTCT | 7.29
GGCGGCGGCCTCTGGGAAATGTAGTTCCGG | -0.274
CAGGCAGAGGGTTAACCCCTATTAACCAAA | 0.385
GGTCAACACAATCTGATAGTTGATTGATTG | 0.627
CATACTTCAGCAATTTCTTAGTAAACACTG | -0.745
GGGTGCAAACTCACCTGGAGAAGCAGAAGC | -1.26
GTATATTCCCTTTGTATGGCAGGGGTTAAC | 2.11
CCTGTCCAAAGGTCATCTGTCACTCTAGAT | 5.47
AGGAGACAGGCTTTGAGCATCGCTGGACTC | 2.07
ACGAGACGGTGTCCCTGGCCAATCCCAGGG | -1.21
AGCAAAGGTCATGCATAGAAGTATGTCTGG | 1.65
GGCTATACAATTCCAGCAAGGATGGGGGCA | -0.832
TGGCGTATGCAGCAGGGCAGCAGCCTGACC | 0.432
CTTTCTCTGTGTGTATGTGTGTGTACACAT | 2.83
TCTTGCAAACATTACTGGCACACAGCAGAT | -1.18
AATCCCCTTCAAGTCTGAGATGAAGAGGCC | 0.649
GAAATGGTGGACTTTGTAGCTCAAACAGTC | 3.13
AACAACCCTTCGCTAGAGCAAATACAGCAC | -1.03
TCTGCCTAGGCATTTGGCTGTCTCAGTGGG | 0.748
ATGGATTGGGGGCCATGTCTCAGCCCAAGA | -1.18
GGCAGGAAAGGGCCTCTCAGGTCAGGGAAG | -0.806
CTTCAGATAGCCTTTGCCTCCACCTTCTCT | -0.103

Sequence | binding signal (log2 normalized intensity)
GTGTAACATTCATCTGAGACTAACTGCATT | -0.778
ACATGGGCGTCACCAACCAGCCCTCGAGTG | 3.42
CATTTTTTCAAACACCTGGGTCTGACCTCT | 4.19
AGGCTGGGGGCAGAGTTCACCCCATTTTGT | 2.7
TTTGCATTCTTACCCAAGCCCCAAATCTAG | 2.94
TTGTGATACACCTTGCCTGGCTACCTCTTA | -0.861
GAGAAGCCTAAGCAGGGCTAGACTTTAACC | 3.92
GTGATCAAACAAAAGGGACAAAGGTGAGTG | 1.99
CAAACAGCGCTTATCTGGAAACTATTCCTT | -0.917
CTACAAGGACCAGATTCTTAAAGGGACCAC | -1.13
CTGGGGACCTTTATATGTCCACCTTATCTA | 0.739
TCTTATCTGCCTAGGCATTTGGCTGTCTCA | -1.05
GGACTTTGGTGTCTGACAGATAAGATTTGG | 2.31
GCACAGGTCCTACTCACACTCAAGGCAAGA | -1.17
TTGCACTCATACTTGAAGACATTCCAAGAA | -0.777
GTTCTCTGGGCTTTTTGATCTTGTCACATT | 1.76
TCGGAAGACGCACCTCTGCATACTTCCTGT | -1.01
GAGGAGTGAGAACAGACAAAATTAAGTGAT | -0.875
GTGGTAGGACAGGGCCCTTCACTATTTTCA | -1.08
CATGAAGGTCTCCTTGACTTCAAAGGCATT | 0.693
GCAGAGTCCCAAGCATCTCTGAGCAGTGAA | -1.16
CACTCCATTTACAGACCAATCCATTGACCT | 3.2
CACAAGCTGTGTGGCATGGTGTTTTGCCTT | 1.38

— paper PMC10726135
